{
  "source": "the supplement of paper PMC6531468",
  "note": "Some of the results follow. Values come from read counts of a selection and are noisy. Scores sum up all selected molecules that hold the word; the word was not tested alone.",
  "data": [
    {"tested_on": "IMP3 KH3-4", "sequence (chain, as listed by the source)": "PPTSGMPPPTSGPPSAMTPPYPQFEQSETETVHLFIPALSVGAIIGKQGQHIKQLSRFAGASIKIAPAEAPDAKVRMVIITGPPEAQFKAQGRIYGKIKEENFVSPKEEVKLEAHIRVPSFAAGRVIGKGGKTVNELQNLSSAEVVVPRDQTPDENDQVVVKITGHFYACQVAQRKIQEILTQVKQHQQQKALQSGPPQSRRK", "assay": "6-mer SELEX enrichment z-score vs GST control; IMP3 is the RNA-binding protein IGF2BP3; higher = more enriched by binding", "details": "construct: KH3-4 (377-579); SELEX round: R4", "description": "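SELEX-seq with GST-tagged IMP3 KH3-4 (Pro377-Lys579) and an N40 RNA pool, round 4. 6-mer z-score of sequence-tag enrichment normalised to the corresponding GST SELEX round; RNA k-mers written as DNA (T for U).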", "values": [
      {"sequence": "CTGCTT", "6-mer SELEX enrichment z-score": 0.231},
      {"sequence": "GAATCC", "6-mer SELEX enrichment z-score": -1.01},
      {"sequence": "GACAGG", "6-mer SELEX enrichment z-score": 0.858},
      {"sequence": "AGCAAA", "6-mer SELEX enrichment z-score": -0.698},
      {"sequence": "CCTTTA", "6-mer SELEX enrichment z-score": 0.526},
      {"sequence": "GATGTT", "6-mer SELEX enrichment z-score": 0.375},
      {"sequence": "ACTACG", "6-mer SELEX enrichment z-score": 0.063},
      {"sequence": "GATAAG", "6-mer SELEX enrichment z-score": 1.03},
      {"sequence": "AATAGC", "6-mer SELEX enrichment z-score": 0.425},
      {"sequence": "TTAGCA", "6-mer SELEX enrichment z-score": 0.412},
      {"sequence": "TTACTA", "6-mer SELEX enrichment z-score": 1.33},
      {"sequence": "ATGTAG", "6-mer SELEX enrichment z-score": 0.372},
      {"sequence": "CTCTAC", "6-mer SELEX enrichment z-score": -0.393},
      {"sequence": "TGGCTC", "6-mer SELEX enrichment z-score": 0.023},
      {"sequence": "TTCTCC", "6-mer SELEX enrichment z-score": 0.085},
      {"sequence": "GGGGAC", "6-mer SELEX enrichment z-score": 0.527},
      {"sequence": "GGCGTC", "6-mer SELEX enrichment z-score": -0.092},
      {"sequence": "AGCGTC", "6-mer SELEX enrichment z-score": -0.562},
      {"sequence": "CCGCAT", "6-mer SELEX enrichment z-score": 0.006},
      {"sequence": "CAATGA", "6-mer SELEX enrichment z-score": 0.838},
      {"sequence": "CTTATA", "6-mer SELEX enrichment z-score": 1.36},
      {"sequence": "GAGTTG", "6-mer SELEX enrichment z-score": -0.144},
      {"sequence": "AAACTT", "6-mer SELEX enrichment z-score": 0.259},
      {"sequence": "ATTGGA", "6-mer SELEX enrichment z-score": 0.315},
      {"sequence": "TTCTTC", "6-mer SELEX enrichment z-score": 0.573},
      {"sequence": "CCTTGC", "6-mer SELEX enrichment z-score": -0.909},
      {"sequence": "TGGCTA", "6-mer SELEX enrichment z-score": 0.31},
      {"sequence": "TGATGT", "6-mer SELEX enrichment z-score": 0.691},
      {"sequence": "CGTCTA", "6-mer SELEX enrichment z-score": -0.386},
      {"sequence": "AGCTAC", "6-mer SELEX enrichment z-score": -0.535},
      {"sequence": "GGGCGT", "6-mer SELEX enrichment z-score": -1.37},
      {"sequence": "TCTCGA", "6-mer SELEX enrichment z-score": -0.503},
      {"sequence": "CATTAG", "6-mer SELEX enrichment z-score": 0.683},
      {"sequence": "AGTAAT", "6-mer SELEX enrichment z-score": 0.725},
      {"sequence": "CGGAGT", "6-mer SELEX enrichment z-score": -0.327},
      {"sequence": "AGCCCC", "6-mer SELEX enrichment z-score": -0.996},
      {"sequence": "ACGACA", "6-mer SELEX enrichment z-score": -0.399},
      {"sequence": "AACTCA", "6-mer SELEX enrichment z-score": -0.878},
      {"sequence": "CGCTCC", "6-mer SELEX enrichment z-score": -0.488},
      {"sequence": "GTTCGC", "6-mer SELEX enrichment z-score": -0.177}
    ]}
  ]
}
